Data on 81 molecules can be found in PubChem BioAssay (NCI).

Structures are written as SMILES. “And” between values parts separate entries of the source, which are not always exact repeats. Equal entries are not always repeated.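 Grown in 96-well plates, cells were treated for 48 hours with each compound at five concentrations. Insufficient inhibition: endpoint recorded as highest concentration tested. GI50 is the concentration that inhibits growth by half. TGI denotes the concentration required for complete inhibition of growth.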 Peptide text beside a SMILES is read from it. * marks the point of attachment. Fmoc = O=C(OCC1c2ccccc2-c2ccccc21)*; Boc = CC(C)(C)OC(=O)*

In this assay the test system is NCI-H322M lung. The assay is described as follows: NCI anticancer screen, dose series, 48 h.
As for `CC(C)(C)c1cc(C2=NN(c3ccccc3)C(c3ccccc3)C2)cc(C(C)(C)C)c1O` (stereo not given), the TGI was over 100 µM.

Take `O=C(NP(=O)(N1CC1)N1CC1)c1cc(I)ccc1I`: the TGI is over 100 µM.

In the case of `CC1OC(OC2C(O[C@H]3CC[C@@]4(C)C(=CC[C@H]5[C@@H]6C[C@@H]7O[C@]8(CC[C@H](C)CN8)[C@@H](C)[C@@H]7[C@@]6(C)CC[C@@H]54)C3)OC(CO)C(O)C2OC2OC(CO)C(O)C(O)C2O)C(O)C(O)C1O` (stereo not given in full), the TGI stood at 37.9 µM.

Molecule `CC(C)[Si](OC1=CCC[C@H]2NC(=O)[C@@H](Cc3ccccc3)[C@@]12C)(C(C)C)C(C)C` gave a TGI of 24.5 µM.

Take `CCOC(=O)c1c(N2CCCC2)[nH]c(=O)c(C(c2ccco2)c2c(O)c(C(=O)OCC)c(N3CCCC3)[nH]c2=O)c1O`: the TGI was over 100 µM.

In turn, `CCCCCCCCCCCCOP(=O)(O)OCC(N)C(=O)O` (stereo not given) returned a TGI of 98.2 µM.

Take `O=S(=O)(O)ON=C1c2ccccc2-c2ccccc21`: the TGI is over 100 µM.

`CC(=O)N(O)[C@@H]1CC[C@H](n2cnc3c(N)ncnc32)C1`: the TGI is over 100 µM.

`COc1ccc(OC)c(CC2CCc3nc(N)nc(N)c3C2)c1` (stereo not given) came in with a TGI of over 100 µM.

As for `COC(=O)/C=C/c1ccc2c(c1)CC1(C2)Cc2cc3c(cc2C1=O)CCC3` (stereo not given), the TGI is over 100 µM.

`CN(C)c1ccccc1CN1CCCN(Cc2ccccc2N(C)C)C1c1ccncc1` yielded a TGI of 25.3 µM.

Regarding `CCOC(=O)C(C(=S)Nc1ccccc1)c1nn2c(=O)cc(C)nc2s1` (stereo not given), the TGI was 52.2 µM.

In turn, `N#CCCC1(CCC#N)CCCCCCCCC(CCC#N)(CCC#N)C(=O)C1=O` returned a TGI of over 100 µM.

As to `CCCCCCOP(=O)(OCCCCCC)C(NC(=O)OCC)(C(F)(F)F)C(F)(F)F`, the TGI was over 100 µM.

Turning to `COc1ccc(C(SCCO)(c2ccccc2)c2ccccc2)cc1`, the TGI was found to be 29.8 µM.

As to `COC(=O)C1CCC(=O)N1C(c1ccc(OC)cc1)c1ccc(OC)cc1` (stereo not given), the TGI was over 100 µM.

Turning to `O=C(NCc1ccc(Cn2c(=O)sn(-c3ccccc3)c2=O)cc1)OCc1ccc2c(Br)cc(Br)c(O)c2n1`, the GI50 was 1.54 µM and the TGI was determined as 3.02 µM.

`CC1(C)[C@@H](O[C@@H]2OC[C@@H](O[C@@H]3O[C@H](CO)[C@@H](O)[C@H](O)[C@H]3O[C@@H]3OC[C@@H](O)[C@H](O)[C@H]3O)[C@H](O)[C@H]2O[C@@H]2O[C@H](CO)[C@@H](O)[C@H](O)[C@H]2O)CC[C@]2(C)[C@H]3CC[C@]45OC[C@@]6(CC[C@](C)(C=O)C[C@H]64)[C@H](O)C[C@@]5(C)[C@]3(C)CC[C@@H]12`: the GI50 is 0.806 µM and the TGI amounted to 1.54 µM.

`Cc1cc(NC[C@H](O)[C@H](O)[C@H](O)CO)c(Sc2cc(=O)[nH]c(=O)[nH]2)cc1C`: the TGI was over 62.5 µM.

`NC(=O)c1ccc2nc(-c3ccc(Oc4ccc(Cl)cc4)cc3)[nH]c2c1`: the GI50 is > 75 µM and 16.1 µM; the TGI is > 75 µM and 30.7 µM.

Consider `COc1cc2c(cc1C)NC(=O)/C2=C\c1cccc(Oc2ccccc2)c1`, for which the GI50 was 19.7 µM and the TGI stood at 46.7 µM.

Turning to `CN(C)c1ccc(Nc2cc(-c3cccc(OC(F)(F)F)c3)nc3ccc(N4CCCC4)cc23)cc1`, the GI50 is 1.97 µM and the TGI came out at 4.12 µM.

As for `COC(=O)C1=C(C)NC(C)=C(C(=O)OC)C1/C=C(Cl)/C=C/c1ccccc1`, the GI50 was 30.5 µM and the TGI was over 100 µM.

As to `CC1OC(O[C@H]2C3C=CO[C@@H](OC4OC(CO)C(O)C(O)C4O)C3[C@@]3(COC(=O)/C=C/c4ccc(O)cc4)O[C@@H]23)C(O)C(O)C1O` (stereo not given in full), the TGI was over 100 µM.

Regarding `CCSc1cc(=O)n(C)c(=O)n1C`, the TGI is over 100 µM.

In turn, `Cn1c2ccccc2c2c(=O)[nH]c(=O)[nH]c21` displayed a TGI of over 100 µM.

`CC(=C(C(N)=O)C(N)=O)C1C=C(c2cccs2)CC(c2ccc(Cl)cc2)=C1O` (stereo not given) registered a TGI of over 100 µM.

`COC(=O)C1=C(O)C(C(=O)OC)[C@]2(O)[C@H](C(=O)OC)[C@H]1C[C@@H](c1c(Cl)cccc1Cl)[C@H]2C(=O)OC` (stereo not given in full) showed a TGI of 18.4 µM.

`Nc1nc(-c2ccccc2)nc(N)c1N=O`: the GI50 was 17.4 µM and the TGI amounted to 50 µM.

As to `CC1C[C@@H]2C(=O)NC(=O)[C@@H]2c2c1c1ccccc1n2C` (stereo not given in full), the TGI was over 100 µM.

For `Nc1[nH]c(=S)nc2snnc12`, the TGI was over 100 µM.

The molecule `c1ccc2c(c1)ncn2C1CCCCO1` (stereo not given) had a TGI of over 100 µM.

With `COc1cc(O)c(C(=O)/C=C/c2ccc(O)cc2)c(O)c1[C@@H]1C[C@H](CCc2ccc(O)cc2)O[C@H](c2ccc(O)cc2)C1`, the GI50 is 5.32 µM and the TGI was 18.2 µM.

`NC(=O)c1cc(-c2ccc(F)cc2)cc(-c2ccncc2)c1N`: the GI50 is over 25 µM and the TGI was over 25 µM.

Take `Cc1cc(Cc2c(F)c(F)c(C(c3cc(C)no3)c3c(F)c(F)c(F)c(F)c3F)c(F)c2F)on1` (stereo not given): the TGI is over 100 µM.

Molecule `CC1OC2(CC(OCc3ccccc3)C1OCc1ccccc1)OCCO2` (stereo not given) came in with a TGI of over 100 µM.

`COCOc1c(C(O[Si](C)(C)C(C)(C)C)c2cnc(Sc3ccccc3)n2C)ccc(OC)c1OC` (stereo not given) returned a TGI of 7.57 µM.

`COc1ccc2c(c1)C(=O)c1c-2c(Nc2ccc(Cl)cc2)nc2ccccc12`: the GI50 was 23.1 µM and the TGI was over 100 µM.

Turning to `C1=CC=C2NCCCNC3=CC=CC=CC3=NCCCN=C2C=C1`, the TGI was over 100 µM.

On to `O=C1CCC(=O)N1n1c(Cc2ccc(Cl)cc2)n[nH]c1=O`, for which the TGI was over 100 µM.

With `CC(C)C1=CCC2C(=C1)CCC1C(C)(C(=O)O)CCCC21C` (stereo not given) (tested in a mixture with another compound), the TGI was over 100 µM.

Molecule `O=C(Nc1nc2ncn(CCNCc3ccccc3)c2c(=O)[nH]1)c1ccccc1` showed a TGI of over 100 µM.

In the case of `COC(=O)CCC(=O)CC(=O)C(=O)Nc1c(Cl)cc([N+](=O)[O-])cc1Cl`, the TGI is over 100 µM.

In turn, `COC(=O)c1c(N)n[nH]c1N` yielded a TGI of over 100 µM.

For the molecule `CCc1cccc(C(C)C)c1NC(=O)C(=O)C(CC(=O)Nc1ccc(Cl)c(Cl)c1)C(=O)OC` (stereo not given), the TGI is over 100 µM.

For `CCn1cc(C(=O)O)c(=O)c2cc3c(cc21)S(=O)(=O)CC3`, the TGI is over 100 µM.

`COC(=O)c1ccc(C)cc1/C=C1\Cc2ccc(C)cc2C1=O` returned a TGI of 93.4 µM.

For `CC(C)(C)c1cc2c3c(c1)C(C(F)(F)F)(C(F)(F)F)O[Te]3(C)OC2(C(F)(F)F)C(F)(F)F`, the TGI is over 100 µM.

`CCC1CN2CCc3c([nH]c4ccccc34)C2C[C@@H]1CC(=O)N(C)C` (stereo not given in full) yielded a TGI of over 100 µM.

As for `COC1(OC)CC(CO)(CNc2cc(Cl)nc(N)n2)C1`, the TGI is over 100 µM.

`CC1(CCCO)CCCCCCCCCC(C)(CCCO)C1=O` (stereo not given) came in with a TGI of over 100 µM.

On to `O=C1CCCC/C1=C\c1ccc(Br)cc1`, for which the TGI was 42 µM.

Consider `N#Cc1c(N)sc2c1-c1ccccc1OC2`, for which the TGI is over 100 µM.

For `Cc1cc(Cl)ccc1NC(=O)c1cc2ccccc2cc1O`, the GI50 was 1.6 µM and the TGI was over 100 µM.

For `CC(C)CCN=C(N)c1ccc(N2CCN(c3ccc(C(N)=NCCC(C)C)cc3)CC2)cc1`, the GI50 is 15 µM and the TGI came to 37.2 µM.

`COc1cc(OC)c(/C=C/c2cnc3ccccc3n2)c(OC)c1` had a TGI of over 10 µM.

The molecule `CN(C)CCNC(=O)c1cccc2c1nc(-c1ccccc1)c1ccccc12` displayed a TGI of 17.5 µM.

`Fc1ccccc1C1CC(c2ccc3ccccc3c2)=Nc2ccccc2S1` (stereo not given) gave a TGI of over 100 µM.

For the molecule `COc1ccc(Cn2cc3c(c2-c2ccc(OC)cc2)CCc2cnoc2-3)cc1`, the GI50 is 0.596 µM and the TGI is over 100 µM.

For `O=C(/C=C/c1cc([N+](=O)[O-])ccc1Cl)c1ccccc1`, the GI50 is 26.9 µM and the TGI was over 100 µM.

In turn, `Cc1cc(C)nc(SC(C)C(=O)N/N=C/c2ccc(OCc3ccccc3)cc2)n1` (stereo not given) registered a TGI of over 100 µM.

As for `COc1cc2c(cc1Nc1nc(Nc3ccsc3C(N)=O)c3cc[nH]c3n1)N(C(=O)CN(C)C)CCC2(C)C`, the GI50 was 1.6 µM and the TGI amounted to 6.1 µM.

For `CCOC(=O)C1=C(C)N(c2ccc(C)cc2)C2=C(C(=O)N(c3ccccc3)C2c2ccccc2)C1c1ccccc1` (stereo not given), the TGI was over 25 µM.

In turn, `CC(C)(C)OC(=O)NCCCCC(NC(=O)OCC1c2ccccc2-c2ccccc21)C(=O)N1CCCC1C(=O)NCC(N)=O` (stereo not drawn) (Fmoc-Lys(Boc)-Pro-Gly-NH2; configuration not given here) returned a TGI of over 100 µM.

As for `O=C1c2ccccc2C(=O)c2c1ccc(C1C(=O)c3ccccc3C1=O)c2-c1c(C2C(=O)c3ccccc3C2=O)ccc2c1C(=O)c1ccccc1C2=O`, the TGI is over 100 µM.

Molecule `CSc1ccc(NC(=S)NN(C)C)cc1` displayed a TGI of over 10 µM.

Turning to `N#CSCC1CC(O)(c2ccccc2)CC(c2ccc(F)cc2)O1` (stereo not given), the GI50 was 3.3 µM and the TGI turned out to be 14 µM.

`COc1cc(OC)c(C2CC=Cc3c(OC)cc(OC)c(OC)c32)cc1OC` (stereo not given) displayed a TGI of over 100 µM.

`O=c1[nH]c(=O)n(C2CC(O)C(CO)O2)cc1C1=NC1` (stereo not given) registered a TGI of over 100 µM.

In turn, `CC1(Cl)CCC2(CC(Br)=CC3OC32C)CC1Br` (stereo not given) registered a TGI of over 100 µM.

In the case of `COc1ccc(/C=C2\CCC(CNc3ccc(OC)cc3)C2=O)cc1` (stereo not given), the TGI is over 100 µM.

In the case of `O=C1C2C3C=CC(C2C(=O)N1COP(=O)(O)O)C1C2C(=O)N(COP(=O)(O)O)C(=O)C2C31` (stereo not given), the TGI was over 100 µM.

On to `C=C(Br)N(CC)CC`, for which the TGI was over 100 µM.

`c1cc(CNCCN2CCNCC2)ccn1` showed a TGI of over 100 µM.

`CC1C2CC(C(S(=O)(=O)N3CCOCC3)/C2=N\O)C1(C)C` (stereo not given) returned a TGI of over 100 µM.

`COc1cc(/C=C/C(=O)c2c(C)nc3ccccc3c2C)ccc1OCCCOc1cc2c(cc1OC)C(=O)N1CCC[C@H]1C=N2`: the GI50 is 0.074 µM and the TGI was 0.5 µM.

The molecule `O=c1oc2cc(O)ccc2c(O)c1C(c1cccnc1)c1c(O)c2ccc(O)cc2oc1=O` returned a TGI of over 100 µM.

Regarding `COc1ccc(Nc2c3ccccc3nc3ccccc23)cc1`, the GI50 was 3.85 µM and the TGI was 16.9 µM.

Molecule `O=C1/C(=C/c2cccc(Br)c2)CSC/C1=C\c1cccc(Br)c1` came in with a TGI of 22.3 µM.

The molecule `CC(=O)OC(CCC1(C)OC1COc1ccc(CCNC(=O)c2ccccc2)cc1)C(C)(C)OC(C)=O` (stereo not given) returned a TGI of over 100 µM.

For the molecule `CCN(C(=O)c1cc(F)ccc1Oc1cncnc1N1CC2(CCN(CC3CCC(NS(=O)(=O)CC)CC3)CC2)C1)C(C)C` (stereo not given), the GI50 was over 100 µM and the TGI is over 100 µM.
